Screen size: about 310,000 compounds; about 2,200 (0.71%) showed an effect of 50% or more. Effects have a minus sign here. This is one part of the list.
biological target: human ether-à-go-go-related gene (hERG) potassium channel (human, UniProt Q12809); assay: primary screen, population patch clamp on CHO cells stably expressing hERG
Sequence (Q12809 whole entry, looked up): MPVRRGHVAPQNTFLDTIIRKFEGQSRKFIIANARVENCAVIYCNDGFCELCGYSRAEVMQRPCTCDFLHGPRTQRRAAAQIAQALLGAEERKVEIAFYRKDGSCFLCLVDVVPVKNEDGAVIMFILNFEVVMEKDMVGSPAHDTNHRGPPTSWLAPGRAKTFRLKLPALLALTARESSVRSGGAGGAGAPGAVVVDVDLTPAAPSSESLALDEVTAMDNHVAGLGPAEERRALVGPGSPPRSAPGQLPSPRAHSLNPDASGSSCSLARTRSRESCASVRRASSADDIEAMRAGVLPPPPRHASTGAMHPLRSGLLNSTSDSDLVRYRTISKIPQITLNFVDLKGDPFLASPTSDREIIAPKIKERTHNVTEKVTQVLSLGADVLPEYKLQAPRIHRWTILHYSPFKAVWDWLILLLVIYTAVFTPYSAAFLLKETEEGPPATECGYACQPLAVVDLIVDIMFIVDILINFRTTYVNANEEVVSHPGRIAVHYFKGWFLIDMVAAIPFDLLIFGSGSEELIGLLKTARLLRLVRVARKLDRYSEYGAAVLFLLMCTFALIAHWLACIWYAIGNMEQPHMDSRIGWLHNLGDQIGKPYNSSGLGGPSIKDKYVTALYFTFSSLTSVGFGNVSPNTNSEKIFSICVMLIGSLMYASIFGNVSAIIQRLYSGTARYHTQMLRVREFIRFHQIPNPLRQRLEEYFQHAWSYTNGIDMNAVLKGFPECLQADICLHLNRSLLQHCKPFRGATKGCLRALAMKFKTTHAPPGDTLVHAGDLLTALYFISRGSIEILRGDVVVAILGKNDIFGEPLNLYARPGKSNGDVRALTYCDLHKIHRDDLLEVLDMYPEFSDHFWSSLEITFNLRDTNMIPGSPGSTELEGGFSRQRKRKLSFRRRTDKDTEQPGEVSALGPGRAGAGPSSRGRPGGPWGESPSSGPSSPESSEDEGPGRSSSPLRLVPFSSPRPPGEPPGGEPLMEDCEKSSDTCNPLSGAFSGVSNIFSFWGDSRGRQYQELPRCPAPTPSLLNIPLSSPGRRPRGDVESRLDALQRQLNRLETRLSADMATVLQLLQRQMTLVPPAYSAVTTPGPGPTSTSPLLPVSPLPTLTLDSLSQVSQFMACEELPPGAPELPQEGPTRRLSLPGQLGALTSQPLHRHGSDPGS

Q: With `COc1ccc(CNS(=O)(=O)c2ccc(OC)cc2)cc1` as the compound, how does the “hERG current change (%, negative = inhibition) at 1uM” value read?
A: 8.05%

Q: How did the “hERG current change (%, negative = inhibition) at 1uM” value turn out when `CC(CC(=O)NCC1CCCO1)c1ccccc1` (stereo not drawn) was run?
A: 9.55%

Q: How did the “hERG current change (%, negative = inhibition) at 1uM” value turn out when `COc1ccc(-c2nc3ccccc3c(=O)n2O)cc1` was run?
A: 15.5%

Q: Which “hERG current change (%, negative = inhibition) at 1uM” value does the source give for `COc1ccccc1C(=O)NC(CCSC)C(=O)NCC(c1ccccc1OC)N1CCCC1` (stereo not drawn) here?
A: -3.45%

Q: With `O=S(=O)(c1ccc(F)cc1F)N1CCCN(c2ccc(C(F)(F)F)cn2)CC1` as the compound, how does the “hERG current change (%, negative = inhibition) at 1uM” value read?
A: 5.84%

Q: Which “hERG current change (%, negative = inhibition) at 1uM” value does the source give for `Cc1nn(Cc2ccccc2)c(Cl)c1C(=O)NC(C)(C)C` here?
A: 1.73%

Q: `CCOC(=O)C1(Cc2ccccc2)CCN(Cc2ccc3c(c2)OCCO3)CC1` was tested. Which “hERG current change (%, negative = inhibition) at 1uM” value did it give?
A: -0.488%

Q: For `CC(C)(C)OC(=O)[C@H](Cc1ccccc1)NC(=O)c1[nH]cnc1C(=O)Nc1cccc(Cl)c1`, which “hERG current change (%, negative = inhibition) at 1uM” value is on record?
A: 14.4%

Q: `CC(C)CNC(=O)c1ccccc1NC(=O)c1ccccc1N(C)S(=O)(=O)c1ccccc1` was tested. Which “hERG current change (%, negative = inhibition) at 1uM” value did it give?
A: 11%

Q: For `Cc1ccc(CC(=O)OC(C)C(=O)NC2CCCCC2C)cc1C` (stereo not drawn), which “hERG current change (%, negative = inhibition) at 1uM” value is on record?
A: 21%

Q: Which “hERG current change (%, negative = inhibition) at 1uM” value does the source give for `Cc1ccc(NS(=O)(=O)c2c(C)[nH]c(C)c2C(=O)N2CCCCC2)cc1C` here?
A: 7.36%

Q: With `CCOc1cccc(-c2nnc3sc(COc4ccc(OC)cc4)nn23)c1` as the compound, how does the “hERG current change (%, negative = inhibition) at 1uM” value read?
A: 7.23%

Q: For `COc1cc(Cl)ccc1OCc1cc(C(=O)N2CCN(c3ccccn3)CC2)no1`, which “hERG current change (%, negative = inhibition) at 1uM” value is on record?
A: 14.3%

Q: For `COc1ccc(/C=C2/S/C(=N/N=C3\CC4CCC3(C)C4(C)C)NC2=O)cc1` (stereo not drawn), which “hERG current change (%, negative = inhibition) at 1uM” value is on record?
A: 15.3%

Q: With `COc1ccc(NC(=O)C(NCC(C)C)c2ccccc2)cc1Cl` (stereo not drawn) as the compound, how does the “hERG current change (%, negative = inhibition) at 1uM” value read?
A: 16.6%

Q: For `CCCCn1c(N)c(N(CC(C)C)C(=O)CCNC(=O)c2ccc(Cl)cc2)c(=O)[nH]c1=O`, which “hERG current change (%, negative = inhibition) at 1uM” value is on record?
A: 4.64%

Q: How did the “hERG current change (%, negative = inhibition) at 1uM” value turn out when `CCCS(=O)(=O)c1cn2cccc(N)c2c1S(=O)(=O)CCC` was run?
A: 3.04%

Q: How did the “hERG current change (%, negative = inhibition) at 1uM” value turn out when `CCC(=O)Nc1ccc(C(=O)n2nc(C)cc2C)cc1` was run?
A: 1.88%

Q: Which “hERG current change (%, negative = inhibition) at 1uM” value does the source give for `Cc1nn(-c2ccccc2)c(C)c1NC(=O)COC(=O)CCc1ccccc1` here?
A: -0.14%

Q: With `COC(=O)c1cc(COc2ccc3oc(C)c(C(=O)OC(C)C)c3c2)c(C)o1` as the compound, how does the “hERG current change (%, negative = inhibition) at 1uM” value read?
A: 7.32%

Q: How did the “hERG current change (%, negative = inhibition) at 1uM” value turn out when `Cc1cccc2[nH]c3c(N4CC=C(c5ccc(F)cc5)CC4)ncnc3c12` was run?
A: 8.01%

Q: With `O=C(OC(C(=O)NCc1cccs1)c1ccccc1F)c1ccco1` (stereo not drawn) as the compound, how does the “hERG current change (%, negative = inhibition) at 1uM” value read?
A: 16.8%

Q: `O=C(O)c1ccc(CSc2nnnn2-c2ccc(F)cc2)cc1` was tested. Which “hERG current change (%, negative = inhibition) at 1uM” value did it give?
A: 6.99%

Q: How did the “hERG current change (%, negative = inhibition) at 1uM” value turn out when `CCN(CC(=O)Nc1cccc(S(=O)(=O)N(C)c2ccccc2)c1)Cc1cccs1` was run?
A: -17.1%

— publication PMC4336329 (PLoS ONE, 2015)
